Key:
[1] = tested on: 786-O renal cell carcinoma cells; assay: 786-O Xenograft Study (in vivo efficacy); parameters: species or system SCID/Biege mice; details: 200 mg/kg BID oral gavage, after 20 days of dosing, n=8
Source text: Example 85: In Vivo Efficacy Study
Efficacy studies for Compounds 79, 116, 119 and 183: All compounds were formulated with 10% absolute ethanol, 30% PEG400, 60% water containing 0.5% methyl cellulose and 0.5% Tween80®. About 5×10^6 786-O renal cell carcinoma cells (ATCC® CRL-1932™) in PBS and Matrigel (1:1 in volume) were inoculated subcutaneously in the right flank of SCID/Biege mice at 6-7 weeks of age for tumor development. When the xenografts reached about 200 mm^3 in size, the tumor-bearing mice were randomly grouped into six groups (n=8) and treated by oral gavage with Compound 79, Compound 116, Compound 119, Compound 183 (each at 200 mg/kg BID), and vehicle (BID) for 20 days. Tumor sizes were measured twice weekly in two dimensions using a caliper and the volume expressed in mm^3 using the formula V=0.5×a×b^2, wherein a and b were the long and short diameters of the tumor, respectively.

[2] = molecular target: Human ACSS2 (Homo sapiens, UniProt Q9NR19); assay: biochemical
Sequence of UniProt Q9NR19 (Q9NR19 whole entry): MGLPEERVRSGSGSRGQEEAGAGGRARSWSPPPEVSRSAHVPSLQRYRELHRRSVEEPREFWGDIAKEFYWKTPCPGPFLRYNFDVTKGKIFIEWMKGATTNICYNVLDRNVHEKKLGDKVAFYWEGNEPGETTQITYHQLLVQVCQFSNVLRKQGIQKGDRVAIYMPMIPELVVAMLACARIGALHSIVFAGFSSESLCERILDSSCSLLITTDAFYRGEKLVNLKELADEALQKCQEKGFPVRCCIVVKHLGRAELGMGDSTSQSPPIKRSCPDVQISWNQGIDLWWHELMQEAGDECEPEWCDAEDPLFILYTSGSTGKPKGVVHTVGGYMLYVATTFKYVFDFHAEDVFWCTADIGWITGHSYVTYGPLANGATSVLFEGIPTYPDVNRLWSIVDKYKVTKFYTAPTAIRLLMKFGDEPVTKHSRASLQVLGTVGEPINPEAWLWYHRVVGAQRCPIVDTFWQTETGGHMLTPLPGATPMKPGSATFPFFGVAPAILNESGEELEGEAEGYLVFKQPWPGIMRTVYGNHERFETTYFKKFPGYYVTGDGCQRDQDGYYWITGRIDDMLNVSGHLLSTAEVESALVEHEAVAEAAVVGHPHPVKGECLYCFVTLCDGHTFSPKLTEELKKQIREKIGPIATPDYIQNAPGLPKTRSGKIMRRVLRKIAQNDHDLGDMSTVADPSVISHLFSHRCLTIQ

Row | IC50 [2] [nM] | SMILES | Tumor Size (mm^3) Mean ± SEM [1] [mm^3]
1 | < 50 | CCn1c(C(O)(c2ccccc2)c2ccccc2)nc2ccc(C(=O)NC[C@@H](C)O)cc21 [Compound 79, (R)-1-ethyl-2-(hydroxydiphenylmethyl)-N-(2-hydroxypropyl)-1H-benzo[d]imidazole-6-carboxamide] | 281.1 ± 45.2
2 | 50 to 249 | CCc1c[nH]c(-c2ccc3nc(C(O)(c4ccccc4)c4ccccc4)n(CC)c3c2)n1 [Compound 300, (1-ethyl-6-(4-ethyl-1H-imidazol-2-yl)-1H-benzo[d]imidazol-2-yl)diphenylmethanol] | 

Reference: patent US10040767B2, “Benzimidazole derivatives and uses thereof” (Peloton Therapeutics, Inc., priority 2014, dated 2018)
